The values below come from patent US20060122260A1, “Intermediates for aromatic polyketides as selective anticancer and antiviral agents” (priority 2002, published 2006).

The test system of the assay is Canine parvovirus type 2 (CPV-d). The assay is described as follows: Parvovirus infectivity screening (animal virus model). As to conditions: 5 nM to 500 nM. How it is done:
The compounds were initially tested against parvovirus. The results for S2507 and S2502 were alike. […] The chart in FIG. 1 presents the results of S2507 compared to negative control and positive control (bafilomycin). […] CPV was pelleted with ultracentrifugation at 173 000 g for 1 h and resuspended in 0.9 ml of PBS, pH 7.4. The suspension was sonicated with low power and chloroform extracted. For infectivity screening studies cells grown on (diameter 13 mm) coverslips to 80% confluency were inoculated with CPV. The drug (1 μM or 500 nM, diluted to DMEM 2 coverslips/concentration) was added simultaneously with CPV and was present during the course of infection. Control samples were incubated without drug. 24 h post-infection (p.i.) the coverslips were dipped in phosphate-buffered saline (PBS), pH 7.4 and fixed with 4% paraformaldehyde in PBS. […] Samples were examined with a laser scanning fluorescence microscope (Zeiss, Axiovert 100M, LSM 510) using excitation/emission settings appropriate for the dye used. Infectivity was determined by counting the ratio of cells with fluorescent nuclei to total number of cells (stained with texasred-X-conjugated wheat germ agglutinin) (n=300) at 24 h p.i. by immunofluorescence with polyclonal antibody (Comell#2) to CPV.

Regarding `CC(=O)/C=C1/C=C2OC(CC(=O)O)Cc3cc4cccc(O)c4c(c32)O1` (stereo not shown) [S2507], the “effect on parvovirus over concentration range” value is listed as “the effect was found with all of these dilutions”.
